Results published in PubChem BioAssay AID1346428 (National Center for Advancing Translational Sciences (NCATS), 2018).
The whole screen tested about 48,000 compounds, of which about 1,200 (2.5%) were called active. Roughly 2% stayed inconclusive and do not appear here.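 The calls were made as follows: active = activation of at least 60% and not above a set upper limit (about 1 call in 100 departs from these limits); inconclusive = activation of 40% to 60%, or above that upper limit; inactive = activation under 40%.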 The list shows a part of the results.

The compounds below were run against Probable G-protein coupled receptor 32 (Homo sapiens) (UniProt O75388) (assay: qHTS for Agonists of Human Resolvin D1 Receptor DRV1). Conditions: CHO-K1 GPR32 beta-arrestin PathHunter luminescence, 90 min; at 76.9 µM; stronger effect = higher value; zero percent set by DMSO-only wells.
Method in brief: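 Readings come from a cell-based beta-arrestin complementation format: CHO-K1 GPR32 stable cells (2,500/well) treated 90 min with compounds, then beta-Gal substrate added for 1 h before chemiluminescence imaging.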
Also: 0% is about no effect.

Chain of UniProt O75388 (O75388 whole entry, looked up): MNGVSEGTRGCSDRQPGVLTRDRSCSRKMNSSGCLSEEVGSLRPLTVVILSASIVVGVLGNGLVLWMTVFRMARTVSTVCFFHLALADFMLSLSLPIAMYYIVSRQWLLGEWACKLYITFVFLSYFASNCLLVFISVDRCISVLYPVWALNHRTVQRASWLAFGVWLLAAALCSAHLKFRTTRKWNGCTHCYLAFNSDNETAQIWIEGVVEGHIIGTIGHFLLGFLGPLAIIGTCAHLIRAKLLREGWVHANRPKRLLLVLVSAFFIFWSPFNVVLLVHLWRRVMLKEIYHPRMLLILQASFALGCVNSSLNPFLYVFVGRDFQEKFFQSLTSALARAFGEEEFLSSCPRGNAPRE

activation, inactive:
CC(C)C1N=C2c3ccccc3N=C(SCC(=O)NCc3ccccc3Cl)N2C1=O (stereo not drawn) -11.4%
Cc1ccc(CNC(=O)c2cc(-c3ccc(C)cc3)nc3n[nH]c(-c4ccc(F)cc4)c23)cc1 -12.7%
CCn1c(SCc2ccc(F)cc2Cl)nc(=O)c2c(C(=O)OC)cc(C3CC3)nc21 -14.4%
COCCCOc1cc(C[C@@H](C[C@H](N)[C@@H](O)C[C@H](C(=O)NCC(C)(C)C(N)=O)C(C)C)C(C)C)ccc1OC -10.1%
CCCn1c(=O)c2sccc2n2c(CCCC(=O)Nc3ccc(Oc4ccccc4)cc3)nnc12 -9.09%
CCOc1ccc(NC(=O)Cn2c(=O)c(CNc3ccccc3)cc3cc4c(cc32)OCCO4)cc1 -32.7%
CCCc1ccc(-c2ccc(C(=O)Oc3ccc(Br)cc3)cc2)nc1 9.97%
Cc1ccc(S(=O)(=O)NCCc2nnc3ccc(SCC(=O)Nc4ccc(OC(F)(F)F)cc4)nn23)cc1 6.26%
O=C1COc2cc(S(=O)(=O)CCC(=O)N3CCN(c4ccccc4)CC3)c(Cl)cc2N1 0.0192%
CCS(=O)(=O)c1cccc(C(=O)N2CCN(c3nc4c(C)ccc(Cl)c4s3)CC2)c1 -0.149%
CCCCCn1c(CNC(=O)c2ccc(F)cc2)nc2ccccc21 -13.1%
CN(C(=O)Cn1ncc2c1-c1ccccc1OC2)c1ccc(Br)cc1 7.25%
N=C(N)N1CCc2ccccc2C1 -6.25%
COC(=O)c1ccc(CSc2nc3c([nH]c4ccccc43)c(=O)n2-c2cc(C)cc(C)c2)o1 -8.23%
COc1ccc(OC)c(CCNC(=O)C(C)n2c(C)c3cnn(-c4ccccc4)c(=O)c3c2C)c1 (stereo not drawn) -14.2%
COc1ccccc1CNS(=O)(=O)c1ccc(N2CCCCS2(=O)=O)cc1 8.39%
O=C(Nc1ccc2c(c1)OCO2)c1cc(-c2ccc(Cl)cc2)on1 10.3%
COc1ccccc1OCC(=O)Nc1c(C(=O)c2ccc(C)cc2)oc2ccccc12 -1.96%
CN(C)C1(CNC(=O)COc2ccc(C(C)(C)C)cc2)CCCCC1 8.39%
CCOC(=O)c1c(C)[nH]c(C)c1S(=O)(=O)N1CCC(C(=O)NCc2ccc(N(C)C)cc2)CC1 -22.2%
Cc1cc(C)cc(-n2ccnc(NCc3ccc(F)cc3)c2=O)c1 -5.73%
COc1ccc(Cl)cc1C(=O)Nc1c2c(nn1-c1ccc(Cl)cc1)CS(=O)(=O)C2 -1.27%
COc1ccc(Cl)cc1NC(=O)CSc1nc(=O)[nH]c2c1CCCC2 -0.779%
COc1ccccc1NC(=O)c1oc2ccccc2c1NC(=O)COc1ccccc1OC 1.01%
CCOc1ccc(CNC(=O)C2=Cc3cc(Br)ccc3OC2)cc1OC 3.72%
Cc1ccc(Cn2c(=O)n(-c3ccc(C)c(C)c3)c(=O)c3c(C)c(C)sc32)cc1 0.0204%
CCOc1ccc(NC(=O)Cn2cc(C(=O)c3ccccc3)c(=O)c3cc4c(cc32)OCO4)cc1 -1.41%
COc1cc(NC(=O)N2CCC(CN3CCc4ccccc4C3)CC2)cc(OC)c1 -20.8%
CN(C)CCOc1ccccc1Cc1ccccc1 8.28%
Cc1ccc2oc(-c3ccc(NC(=O)c4cccc(F)c4)c(C)c3)nc2c1 8.32%
CC(=O)N1c2c(cc(Br)cc2S(=O)(=O)NCc2ccccc2Cl)CC1C (stereo not drawn) 20%
COc1ccc(NC(=O)c2cc(C)nc3c2c(C)nn3-c2cccc(Cl)c2C)c(OC)c1 -15.8%
CCOc1ccc(OCC)c(NC(=O)c2csc3c2CCCC3)c1 -22.1%
Cc1ccc(-c2nnc(Nc3cccc(O)c3)c3ccccc23)cc1S(=O)(=O)N1CCCCC1 -24.8%
COc1ccc(-n2ccn(CC(=O)Nc3ccc(C)c(C)c3)c(=O)c2=O)cc1OC -9.07%
COc1ccc(-c2cn3c(n2)sc2cc(C(=O)Nc4ccc(F)cc4Cl)ccc23)cc1 -8.77%
CCOc1cc2[nH]c(=O)n(CCCC(=O)NCc3ccc(OC)cc3)c(=O)c2cc1OCC -3.14%
COC(=O)c1c(-c2cccs2)csc1NC(=O)c1cc(OC)c(OC)c(OC)c1 -8.61%
CC(C)CCNC(=O)c1nn(C)c2c1CSc1ccccc1-2 -12.8%
C=Cc1ccc(Cn2c(C(=O)O)c(CNCc3ccccc3)c3ccc(OC)cc32)cc1 -0.868%
Cc1ccc(NC(=O)C(=O)NCC(c2cccnc2)N2CCc3ccccc3C2)cc1 (stereo not drawn) -16.1%
CC1CCCN(S(=O)(=O)c2cc(C(=O)NCc3ccccc3Cl)n(C)c2)C1 (stereo not drawn) -7.85%
Cc1ccc(F)cc1NC(=O)CCSc1nc(-c2ccco2)cc(C(F)(F)F)n1 -2.59%
CCN(C(=O)c1cc2cc(Br)cc(OC)c2oc1=O)c1ccccc1 -6.03%
COc1cccc(C2c3c(-c4ccccc4O)n[nH]c3C(=O)N2Cc2cccnc2)c1 (stereo not drawn) -13.8%
O=S(=O)(Nc1ccc(-c2ccc(N3CCCC3)nn2)cc1)c1ccc(OC(F)(F)F)cc1 38.2%
O=C(NC1CCCCCC1)c1ccc(CS(=O)c2ccc(Br)cc2)o1 (stereo not drawn) 19.2%
CCc1ccccc1NC(=O)Cn1c(=O)n(-c2ccc(C)c(C)c2)c(=O)c2oc3ccccc3c21 -7.78%
Cc1ccc(NC(=O)CSCc2cnn(-c3ccccc3)c2-n2cccc2)c(Cl)c1 -23.6%
COc1ccc(CCNc2nc3ccccc3c3nc(-c4cccc(C)c4)nn23)cc1OC -20.5%
COc1cc(Br)ccc1C1C(C(=O)Nc2ccc(C)cc2C)=C(C)Nc2nnnn21 (stereo not drawn) -14.2%
Cc1ccc(CCNC(=O)c2cccc(Nc3nc4ccccc4nc3-n3nc(C)cc3C)c2)cc1 4.88%
COc1ccc(S(=O)(=O)NCCc2sc(-c3cccc(C)c3)nc2C)cc1 20.3%
